The subject of data set [1] is PE-contracted aortic rings. Kind of data set: Vasorelaxation of isolated phenylephrine-contracted rat aortic rings. How it is done: All experiments were conducted in accordance with institutional guidelines and approved by the local committee on animal experiments. Male Sprague-Dawley rats (weighing 250-300 g) were anesthetized with pentobarbital sodium (40 mg/kg i.p.), killed by decapitation, and exsanguinated. The thoracic aorta was excised and placed in ice-cold Krebs buffer of the following composition: 130 mM NaCl, 14.9 mM NaHCO3, 5.5 mM dextrose, 4.7 mM KCl, 1.18 mM KH2PO4, 1.17 mM MgSO47H2O, and 1.6 mM CaCl22H2O. The vessel was pinned in a Sylgard Petri dish filled with chilled Krebs' solution, cleaned of fat and connective tissue, and cut into ring segments of approximately 3 to 4 mm in length. […] Changes in isometric force were recorded using a PowerLab data acquisition system (software Lab Chart 7.0)
After the equilibration period, aortic rings were challenged with 80 mM KCl to check tissue viability. Next, the endothelial integrity of the preparations was determined by verifying the responsiveness to acetylcholine (ACh, 1 μM) in vessels pre-contracted with Phenylephrine (PE, 1 μM). After wash-out and a period of equilibration, Phenylephrine (PE, 1 μM) was used to induce contraction, thereafter natriuretic peptides and natriuretic peptide engrafted IgGs were evaluated for vasorelaxation.

The test system of data set [2] is spontaneously hypertensive rats. Briefly: Radiotelemetric blood pressure in conscious spontaneously hypertensive rats. The format is in vivo, rat. To be noted: 30 mg/kg dose intraperitoneally. As for the experimental part:
Blood pressure and heart rate were monitored in freely moving conscious animals by radiotelemetry (Data Sciences International). Female spontaneously hypertensive rats (SHR/N Crl BR, Charles River) with a body weight of 210-300 g were used for these studies. All animals were housed in individual cages at 22-24° C. ambient temperature and maintained on a 12-hour light/dark cycle with free access to standard laboratory rat chow and water ad libitum. Telemeter (HD-10, DSI) implantation was performed a minimum of 14 days before animals were used for blood pressure measurements. Surgery was performed under aseptic conditions. After shaving the abdominal wall, a midline abdominal incision was made, and the fluid-filled sensor catheter was inserted upstream into the exposed descending aorta between the iliac bifurcation and the renal arteries. According to the DSI guidelines the tip of the telemetric catheter was located caudal to the renal arteries and secured by tissue adhesive. The transmitter body was affixed to the inner peritoneal wall before closure of the abdomen. For postsurgical protection against infections and pain a single dosage of an antibiotic (Oxytetracyclin® 10%, 60 mg/kg s.c., 0.06 ml/100 g body weight, Beta-Pharma GmbH & Co, Germany) and analgesic were injected (Rimadyl®, 4 mg/kg s.c., Pfizer, Germany). Telemetric data acquisition was performed by DSI software was predefined to sample hemodynamic data for 10 seconds repeated every 5 minutes. Data collection was started at least 2 hours before drug administration and finished after completion of measurement cycles. Data are expressed as % of basal values±SEM of at least 4 animals per group. The basal value for each animal was calculated as the average of the values measured in two hours prior to substance application (7:00-9:00 AM). Data are then expressed as averages every half hour, starting 15 minutes post application. All animals were treated with a single intraperitoneal (ip) application of test substances dissolved in phosphate buffered saline (PBS). Drug administration took place at 9:00 AM (0 hours).

The test system of another data set is healthy beagle dogs. Briefly: Hemodynamics in conscious telemetered beagle dogs. The format is in vivo, dog. As for the experimental part:
The effects of TPP-10992 on cardiovascular and ECG parameters after single subcutaneous administration were assessed in a primary pharmacodynamic study in conscious telemetered beagle dogs.
Telemetry devices (DSI™, USA) were surgically implanted to measure blood pressure as well as heart rate, followed by a recovery period to allow wound closure. On the day of the study, telemetry sensors were activated for continuous hemodynamic measurements. The transmitted signals were collected by telemetry receivers located in the animal facility. All collected data were processed by a data acquisition program and averaged over a predefined period of 12h. As vehicle for TPP-10992 NaCl (0.9%) was used and doses of 0.1 mg/kg, 0.3 mg/kg and 1.0 mg/kg bodyweight were applied via subcutaneous injection.

In data set [3] the target is T1, insulin degrading enzyme (IDE) (Rattus norvegicus, UniProt P35559).
T1 sequence (P35559 1-1019): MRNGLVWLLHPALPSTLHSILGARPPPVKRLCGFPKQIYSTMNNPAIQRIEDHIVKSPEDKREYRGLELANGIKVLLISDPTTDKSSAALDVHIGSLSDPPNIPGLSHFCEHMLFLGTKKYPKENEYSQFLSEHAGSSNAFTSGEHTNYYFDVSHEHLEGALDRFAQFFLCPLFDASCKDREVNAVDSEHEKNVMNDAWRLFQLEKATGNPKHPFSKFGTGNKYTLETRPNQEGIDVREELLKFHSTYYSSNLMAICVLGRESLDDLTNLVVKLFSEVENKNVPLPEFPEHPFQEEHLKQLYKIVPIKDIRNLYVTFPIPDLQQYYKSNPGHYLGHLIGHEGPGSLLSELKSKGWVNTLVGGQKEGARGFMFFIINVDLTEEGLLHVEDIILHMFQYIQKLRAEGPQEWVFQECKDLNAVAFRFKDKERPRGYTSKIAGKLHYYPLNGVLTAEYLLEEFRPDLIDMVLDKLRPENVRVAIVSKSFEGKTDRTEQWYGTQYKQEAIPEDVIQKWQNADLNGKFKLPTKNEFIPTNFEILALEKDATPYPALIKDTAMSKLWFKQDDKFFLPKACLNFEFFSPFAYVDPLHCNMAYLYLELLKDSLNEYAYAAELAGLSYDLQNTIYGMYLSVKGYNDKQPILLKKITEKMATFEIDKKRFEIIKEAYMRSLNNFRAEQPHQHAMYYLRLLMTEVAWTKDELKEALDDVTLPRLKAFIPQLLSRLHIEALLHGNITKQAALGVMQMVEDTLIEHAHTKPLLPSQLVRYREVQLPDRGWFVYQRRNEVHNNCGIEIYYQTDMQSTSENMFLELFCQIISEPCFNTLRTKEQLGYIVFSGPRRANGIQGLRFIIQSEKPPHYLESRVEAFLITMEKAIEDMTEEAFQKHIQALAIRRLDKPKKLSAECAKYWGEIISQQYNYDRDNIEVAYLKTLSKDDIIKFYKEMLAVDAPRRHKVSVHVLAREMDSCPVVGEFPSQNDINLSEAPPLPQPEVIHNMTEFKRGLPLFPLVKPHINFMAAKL
Briefly: Sensitivity towards proteolytic degradation by IDE (reporter cell activity after incubation). The settings on record: 4 hours incubation with 0.6 μg/ml IDE at 37° C., then reporter cell activity.

Data set [4] concerns the target T2, neutral endopeptidase (NEP) (Homo sapiens, UniProt P08473).
T2 construct: purchased R&D Systems 1182-ZNC
Briefly: Sensitivity towards proteolytic degradation by NEP (reporter cell activity after incubation). In kind it is in vitro ADME. To be noted: 4 hours incubation with 0.6 μg/ml NEP at 37° C., then reporter cell activity.

The conditions of data set [5]: rat, in vivo, iv, 5 mg/kg. How it is done: Pharmacokinetic parameters of TPP-10992 (SEQ ID NO 76 and SEQ ID NO 66) and TPP-5661 (SEQ ID NO 67 and SEQ ID NO 66) were determined after intravenous administration of 5 mg/kg to male Wistar rats (n=3). TPP-10992 and TPP-5661 were given as a bolus injection via the tail vein. Blood samples were collected from the jugular vein via previously implanted catheters in time intervals up to 14 days (336 hours). Generated EDTA-plasma was stored at −20° C. until further analysis. The quantification of TPP-10992 and TPP-5661 in plasma samples was performed employing an anti-human IgG ELISA (enzyme-linked immunosorbent assay) format. Pharmacokinetic parameters were calculated from plasma concentration time profiles using non-compartmental data analysis.

Data set [6] in a line: Pharmacokinetics after intraperitoneal administration in mice (anti-human IgG ELISA). The format is in vivo, mouse. To be noted: intraperitoneal administration of 5 mg/kg. How it is done: Pharmacokinetic parameters of TPP-12897 were determined after intraperitoneal administration to female Balb/c mice (n=3). Blood samples were collected from 15 minutes up to 72 hours post application. Generated EDTA-plasma was stored at −20° C. until further analysis. The quantification of TPP-12897 in plasma samples was performed by an anti-human IgG (Immunoglobulin G) ELISA format.
Pharmacokinetic parameters were calculated from plasma concentration time profiles using non-compartmental data analysis.
In general terms: ELISA stands for enzyme-linked immunosorbent assay.

The values below come from patent publication US12331094B2 (Bayer Aktiengesellschaft, priority 2018, dated 2025).

Positions count from the first letter of the chain named. Read-outs that look alike come from different tables or passages of the source.

T2 sequence (P08473 52-750 limits assumed): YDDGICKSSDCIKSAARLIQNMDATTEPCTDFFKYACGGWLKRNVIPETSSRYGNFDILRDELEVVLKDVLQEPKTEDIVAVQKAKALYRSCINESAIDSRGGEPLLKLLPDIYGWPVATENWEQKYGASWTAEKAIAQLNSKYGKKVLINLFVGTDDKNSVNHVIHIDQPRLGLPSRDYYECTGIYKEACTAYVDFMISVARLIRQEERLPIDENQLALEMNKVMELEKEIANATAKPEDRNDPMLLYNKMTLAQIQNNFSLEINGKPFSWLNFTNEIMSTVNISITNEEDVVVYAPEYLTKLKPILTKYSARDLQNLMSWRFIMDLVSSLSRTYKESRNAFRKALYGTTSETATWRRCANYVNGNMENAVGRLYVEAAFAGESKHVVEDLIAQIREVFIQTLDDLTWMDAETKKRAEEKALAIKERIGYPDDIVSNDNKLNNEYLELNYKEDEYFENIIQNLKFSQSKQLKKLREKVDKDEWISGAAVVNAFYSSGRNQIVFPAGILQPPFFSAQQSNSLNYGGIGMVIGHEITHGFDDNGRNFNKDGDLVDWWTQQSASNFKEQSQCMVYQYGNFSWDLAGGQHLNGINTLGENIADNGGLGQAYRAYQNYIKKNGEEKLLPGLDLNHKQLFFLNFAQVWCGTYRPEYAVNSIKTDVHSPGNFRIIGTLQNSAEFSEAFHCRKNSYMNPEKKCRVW

B1: TPP-10992: compound 9 as IgG4; ANP engrafted in CDRH1; SEQ ID NO 76 and SEQ ID NO 66 (antibody, listed as Homo sapiens)
heavy: EVQLLESGGGLVQPGGSLRLSCAASGFTFGSGSGSGSGSGSPDGGSGGSLRRSSCFGGRMDRIGAQSGLGCNSFRYGSYGSGSGSGSGSGMSWVRQAPGKGLEWVSAISGSGGSTYYADSVKGRFTISRDNSKNTLYLQMNSLRAEDTAVYYCAKLTGAEYFQHWGQGTLVTVSSASTKGPSVFPLAPCSRSTSESTAALGCLVKDYFPEPVTVSWNSGALTSGVHTFPAVLQSSGLYSLSSVVTVPSSSLGTKTYTCNVDHKPSNTKVDKRV[here human IgG4 Fc with S228P (EU numbers) without letters]
light: QSVLTQPPSVSGAPGQRVTISCTGSSSNIGAGYDVHWYQQLPGTAPKLLIYGNSNRPSGVPDRFSGSKSGTSASLAITGLQAEDEADYYCQSYDSSLSGVVFGGGTKLTVLGQPKAAPSVTLFPPSSEELQANKATLVCLISDFYPGAVTVAWKADSSPVKAGVETTTPSKQSNNKYAASSYLSLTPEQWKSHRSYSCQVTHEGSTVEKTVAPTECS
modifications: NP engrafted HC
Regarding B1, the “vasodilation in PE-contracted aortic rings” value in data set [1] is listed as “dose-dependent vasodilation”. The “Potency (log EC50 values)” value in data set [1] (vasodilation, endothelium-intact rat aortic rings contracted by phenylephrine (1 μM)) was −6.7. Besides, in data set [2], the duration of effect entry is “greater than 6 days”, the “reduction in mean arterial blood pressure (MAP)” value is reported as “approximately 20%” and the “time of maximum effect post application” value is 48 h. Also, the “significance of blood pressure reduction compared to placebo” value with healthy beagle dogs (dogs, 1.0 mg/kg s.c.) is reported as “significant”. The “reduction in blood pressure” value in the data set with healthy beagle dogs (dogs, 0.1, 0.3 and 1.0 mg/kg single subcutaneous) is “dose-dependent and long-lasting”. Further, the “effects on heart rate” value with healthy beagle dogs (dogs, 0.1-1.0 mg/kg s.c.) was “No effects”. Besides, in the data set on healthy beagle dogs (dogs, single subcutaneous administration), the “duration of reduction in blood pressure” value is greater than 5 days. Moreover, the “proteolytic degradation by IDE” value in data set [3] was “high resistance”. Also, in data set [4], the “proteolytic degradation by NEP” value was “high resistance”. In addition, in data set [5], the “Mean clearance (CL)” value amounted to 6.48 mL/day/kg and the “terminal half-life (t1/2)” value was 184 h.

B2: C5: CNP engrafted antibody, CDRH3 (antibody)
heavy: EVQLLESGGGLVQPGGSLRLSCAASGFTFSSYAMSWVRQAPGKGLEWVSAISGSGGSTYYADSVKGRFTISRDNSKNTLYLQMNSLRAEDTAVYYCTSVHQETKKYQSSPYKGANKKGLSKGCFGLKLDRIGSMSGLGCGSGGSGSYSYTYNYEWHVDVWGQGTLVTVSS[here human IgG1 constant region without letters]
light: B1 light
B2: in data set [3], the “proteolytic degradation by IDE” value is recorded as “high resistance”. Further, in data set [4], the “proteolytic degradation by NEP” value is “high resistance”.

B3: C9: CNP engrafted antibody based on TPP-12377, LC_S98D (antibody)
heavy: B2 heavy
light: B1 light with S98D
For B3, in data set [6], the “Mean area under the curve (AUC)” value stood at 7705 µg·h/mL and the “terminal half-life (t1/2)” value worked out at 194 h. Further, the “proteolytic degradation by IDE” value in data set [3] is “high resistance”. The “proteolytic degradation by NEP” value in data set [4] was “high resistance”.
